The list shows a part of the results.

The target in the test is T1, MBP-FoxP1dN (Mus musculus, UniProt P58462 326-579).
T1 sequence: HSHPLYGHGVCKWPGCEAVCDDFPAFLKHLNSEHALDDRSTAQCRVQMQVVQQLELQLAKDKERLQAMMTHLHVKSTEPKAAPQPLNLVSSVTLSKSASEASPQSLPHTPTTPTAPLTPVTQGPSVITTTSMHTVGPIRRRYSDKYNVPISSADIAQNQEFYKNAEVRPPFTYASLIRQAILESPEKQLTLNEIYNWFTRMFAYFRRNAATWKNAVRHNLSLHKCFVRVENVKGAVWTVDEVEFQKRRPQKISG
Nature of the test: PD-seq (MBP pull-down with sequencing); 20 mM Tris-HCl pH 7.5, 100 mM NaCl, 1.5 mM MgCl2, 0.4 uM protein, 0.1 uM dsDNA library, 30 min, room temperature, amylose pull-down; high values mean tight binding. The following applies: protein: recombinant; tags: His6-MBP; chain copies: 2; dsDNA, one strand shown. In a few lines: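 Binding is reads-per-million enrichment of pull-down over input, with replicates pooled. It comes from 30 min room-temperature incubation in Tris pH 7.5 buffer with NaCl and MgCl2 of 0.4 µM His6-MBP-tagged, N-terminally truncated mouse FoxP3 or FoxP1 fragment from E. coli with 0.1 µM Klenow-filled degenerate double-stranded DNA library, followed by amylose resin capture, three washes and Illumina sequencing of the released DNA.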
For “GATGATTGTTCTCCCAGCTGATGAATTTTCTTACTCGAGTAAACAAATTTTCCTAATCTTTCTGTTCAAGCGCCATCTAC”, the binding signal is 0.975 RPM ratio (pull-down/input).

Consider “GATGATTGTTCTCCCAGCTGATGAATTTCCCTAGTCGAGTAAACAAATTTTCCTAATCTTTCTGTTCAAGCGCCATCTAC”, for which the binding signal is 0.866 RPM ratio (pull-down/input). For the sequence “GATGATTGTTCTCCCAGCTGATGAATTGCATTTATCGAGTAAACAAATTTTCCTAATCTTTCTGTTCAAGCGCCATCTAC”, the binding signal is 1.77 RPM ratio (pull-down/input).

With “GATGATTGTTCTCCCAGCTGATGAATTAGGCATGTCGAGTAAACAAATTTTCCTAATCTTTCTGTTCAAGCGCCATCTAC”, the binding signal was 0.883 RPM ratio (pull-down/input). As for “GATGATTGTTCTCCCAGCTGATGAATTATACTCATCGAGTAAACAAATTTTCCTAATCTTTCTGTTCAAGCGCCATCTAC”, the figure is 1.03 RPM ratio (pull-down/input); as for “GATGATTGTTCTCCCAGCTGATGAATTTTATAATTCGAGTAAACAAATTTTCCTAATCTTTCTGTTCAAGCGCCATCTAC”, 1.07 RPM ratio (pull-down/input). As for “GATGATTGTTCTCCCAGCTGATGAATTTCTGTCTTCGAGTAAACAAATTTTCCTAATCTTTCTGTTCAAGCGCCATCTAC”, the figure is 0.89 RPM ratio (pull-down/input); as for “GATGATTGTTCTCCCAGCTGATGAATTATGCCTTTCGAGTAAACAAATTTTCCTAATCTTTCTGTTCAAGCGCCATCTAC”, 1.04 RPM ratio (pull-down/input). With “GATGATTGTTCTCCCAGCTGATGAATTAGGGAGATCGAGTAAACAAATTTTCCTAATCTTTCTGTTCAAGCGCCATCTAC” the figure was 0.804 RPM ratio (pull-down/input); with “GATGATTGTTCTCCCAGCTGATGAATTAATGGATTCGAGTAAACAAATTTTCCTAATCTTTCTGTTCAAGCGCCATCTAC”, 0.869 RPM ratio (pull-down/input); with “GATGATTGTTCTCCCAGCTGATGAATTCTACTGATCGAGTAAACAAATTTTCCTAATCTTTCTGTTCAAGCGCCATCTAC”, 0.862 RPM ratio (pull-down/input). Consider “GATGATTGTTCTCCCAGCTGATGAATTCGAAAGGTCGAGTAAACAAATTTTCCTAATCTTTCTGTTCAAGCGCCATCTAC”, for which the binding signal was 0.801 RPM ratio (pull-down/input). As to “GATGATTGTTCTCCCAGCTGATGAATTTATACAATCGAGTAAACAAATTTTCCTAATCTTTCTGTTCAAGCGCCATCTAC”, the binding signal is 1.67 RPM ratio (pull-down/input). For the sequence “GATGATTGTTCTCCCAGCTGATGAATTCAGGACCTCGAGTAAACAAATTTTCCTAATCTTTCTGTTCAAGCGCCATCTAC”, the binding signal was 0.746 RPM ratio (pull-down/input). Consider “GATGATTGTTCTCCCAGCTGATGAATTACCCTTGTCGAGTAAACAAATTTTCCTAATCTTTCTGTTCAAGCGCCATCTAC”, for which the binding signal is 0.888 RPM ratio (pull-down/input).

Consider “GATGATTGTTCTCCCAGCTGATGAATTGGGTGCGTCGAGTAAACAAATTTTCCTAATCTTTCTGTTCAAGCGCCATCTAC”, for which the binding signal is 0.968 RPM ratio (pull-down/input). Take “GATGATTGTTCTCCCAGCTGATGAATTTCGTCTCTCGAGTAAACAAATTTTCCTAATCTTTCTGTTCAAGCGCCATCTAC”: the binding signal was 0.896 RPM ratio (pull-down/input). In the case of “GATGATTGTTCTCCCAGCTGATGAATTGTAGAGCTCGAGTAAACAAATTTTCCTAATCTTTCTGTTCAAGCGCCATCTAC”, the binding signal is 0.783 RPM ratio (pull-down/input). For the sequence “GATGATTGTTCTCCCAGCTGATGAATTAGTGTAATCGAGTAAACAAATTTTCCTAATCTTTCTGTTCAAGCGCCATCTAC”, the binding signal was 1.54 RPM ratio (pull-down/input). As to “GATGATTGTTCTCCCAGCTGATGAATTTCCCCTGTCGAGTAAACAAATTTTCCTAATCTTTCTGTTCAAGCGCCATCTAC”, the binding signal was 0.819 RPM ratio (pull-down/input). For “GATGATTGTTCTCCCAGCTGATGAATTAGACAGGTCGAGTAAACAAATTTTCCTAATCTTTCTGTTCAAGCGCCATCTAC”, the binding signal was 0.87 RPM ratio (pull-down/input). “GATGATTGTTCTCCCAGCTGATGAATTTCAAGTATCGAGTAAACAAATTTTCCTAATCTTTCTGTTCAAGCGCCATCTAC”: the binding signal is 0.952 RPM ratio (pull-down/input). As for “GATGATTGTTCTCCCAGCTGATGAATTGGGGCCATCGAGTAAACAAATTTTCCTAATCTTTCTGTTCAAGCGCCATCTAC”, the figure is 0.831 RPM ratio (pull-down/input).

“GATGATTGTTCTCCCAGCTGATGAATTGTTGCGCTCGAGTAAACAAATTTTCCTAATCTTTCTGTTCAAGCGCCATCTAC”: the binding signal was 1.48 RPM ratio (pull-down/input).

For the sequence “GATGATTGTTCTCCCAGCTGATGAATTGGTTTTATCGAGTAAACAAATTTTCCTAATCTTTCTGTTCAAGCGCCATCTAC”, the binding signal was 1.14 RPM ratio (pull-down/input). In the case of “GATGATTGTTCTCCCAGCTGATGAATTTCTATATTCGAGTAAACAAATTTTCCTAATCTTTCTGTTCAAGCGCCATCTAC”, the binding signal was 1.11 RPM ratio (pull-down/input). Consider “GATGATTGTTCTCCCAGCTGATGAATTACGTGGATCGAGTAAACAAATTTTCCTAATCTTTCTGTTCAAGCGCCATCTAC”, for which the binding signal was 0.967 RPM ratio (pull-down/input).

Consider “GATGATTGTTCTCCCAGCTGATGAATTTGCTGAGTCGAGTAAACAAATTTTCCTAATCTTTCTGTTCAAGCGCCATCTAC”, for which the binding signal was 0.904 RPM ratio (pull-down/input). “GATGATTGTTCTCCCAGCTGATGAATTAGAGTCGTCGAGTAAACAAATTTTCCTAATCTTTCTGTTCAAGCGCCATCTAC”: the binding signal was 0.879 RPM ratio (pull-down/input). Turning to “GATGATTGTTCTCCCAGCTGATGAATTGCCAGAGTCGAGTAAACAAATTTTCCTAATCTTTCTGTTCAAGCGCCATCTAC”, the binding signal was 0.869 RPM ratio (pull-down/input). Take “GATGATTGTTCTCCCAGCTGATGAATTCGCAATTTCGAGTAAACAAATTTTCCTAATCTTTCTGTTCAAGCGCCATCTAC”: the binding signal is 1.05 RPM ratio (pull-down/input). In the case of “GATGATTGTTCTCCCAGCTGATGAATTTTCGACCTCGAGTAAACAAATTTTCCTAATCTTTCTGTTCAAGCGCCATCTAC”, the binding signal was 0.818 RPM ratio (pull-down/input). As for “GATGATTGTTCTCCCAGCTGATGAATTATCATCCTCGAGTAAACAAATTTTCCTAATCTTTCTGTTCAAGCGCCATCTAC”, the binding signal was 0.855 RPM ratio (pull-down/input). As to “GATGATTGTTCTCCCAGCTGATGAATTCCCGGTCTCGAGTAAACAAATTTTCCTAATCTTTCTGTTCAAGCGCCATCTAC”, the binding signal was 0.751 RPM ratio (pull-down/input). On to “GATGATTGTTCTCCCAGCTGATGAATTCATTTACTCGAGTAAACAAATTTTCCTAATCTTTCTGTTCAAGCGCCATCTAC”, for which the binding signal is 1.05 RPM ratio (pull-down/input). “GATGATTGTTCTCCCAGCTGATGAATTCACTCCGTCGAGTAAACAAATTTTCCTAATCTTTCTGTTCAAGCGCCATCTAC”: the binding signal is 0.838 RPM ratio (pull-down/input). As for “GATGATTGTTCTCCCAGCTGATGAATTATACAGATCGAGTAAACAAATTTTCCTAATCTTTCTGTTCAAGCGCCATCTAC”, the binding signal was 1.14 RPM ratio (pull-down/input). For the sequence “GATGATTGTTCTCCCAGCTGATGAATTCTTTCTGTCGAGTAAACAAATTTTCCTAATCTTTCTGTTCAAGCGCCATCTAC”, the binding signal was 0.802 RPM ratio (pull-down/input). On to “GATGATTGTTCTCCCAGCTGATGAATTCGCGTGTTCGAGTAAACAAATTTTCCTAATCTTTCTGTTCAAGCGCCATCTAC”, for which the binding signal was 0.899 RPM ratio (pull-down/input).

“GATGATTGTTCTCCCAGCTGATGAATTAGAGGTATCGAGTAAACAAATTTTCCTAATCTTTCTGTTCAAGCGCCATCTAC”: the binding signal is 0.945 RPM ratio (pull-down/input).

Values taken from PMC12820563, “FoxP3 forms a head-to-head dimer in vivo and stabilizes its multimerization on adjacent microsatellites”.
